Reference: a collection of fitness landscapes (doi:10.1016/j.celrep.2020.107928)
Whole data set: some 81,000 sequences, median “one-hybrid fitness for binding NBS DNA” near -0.1, cut for the highest 2% near 0.36. Some of the results follow.

B1: Caulobacter ParB omega fusion; a variant is named by its letters at X, in order, B8GW30 (parent)
chain: MESVVVGEPGMSEGRRGLGRGLSALLGEVDAAPAQAPGEQLGGSREAPIEILQRNPDQPRRTFREEDLEDLSNSIREKGVLQPILVRPSPDTAGEYQIVAGERAWRAAQRAGLKTVPIMVRELDDLAVLEIGIIENVQRADLNVLEEALSYKVLMEKFERTQENIAQTIGKSXSHVANXMRLLXLPDEVQSYLVSGELTAXHARAIAAAADPVALAKQIIEGGLSVRETEALARKAPNLSAGKSKGGRPPRVKDTDTQALESDLSSVLGLDVSIDHRGSTGTLTITYATLEQLDDLCNRLTRGI

Variants of: B1
Test: one-hybrid fitness for binding NBS DNA (the Noc-binding site; scaled: cognate 1, non-cognate 0); higher = stronger binding
Conditions: with NBS DNA site
Summary of the method: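 Pre- and post-selection plasmids were Illumina-sequenced, three replicate libraries were pooled, and any variant with under 10 reads was removed. The libraries were Caulobacter ParB with four specificity codons randomised, selected in E. coli USO through a HIS3 reporter whose site is 19 bp from the promoter. Cells grew 48 hours at 37°C on M9 without histidine, with 0.1 mM IPTG and 5 mM 3-AT. Fitness is the log change in variant-to-wild-type read ratio, rescaled against cognate and non-cognate.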

one-hybrid fitness for binding NBS DNA, 0.396:
QAKK

one-hybrid fitness for binding NBS DNA, ≤ 0.2:
EQSS
SMLT
WQCC
HFMV
IMWS
NEKI
NGVE
KTFT
KYNW
KKSS
RVTM
RDYG
GPAT
TMNG
GKTF
VKCT
DGNR
TVLF
CLAE
FHCW
QFIL
KWCG
DFFS
GQDP
FRIR
PKAE
CHQV
INVR
YSTR
LDEC
PVEC
DERP
ARYF
ENRR
PRRS
QQPN
AMCP
TDGM
HAHK
PYEL
SHMW
TFKY
CNRN
DHPP
NLAN
SMFV
DVIG
GFAT
ANGI
DCMM
IRCK
HSNA
CTPL
PLTP
IDHV
CLIV
MLFT
NQAR
LLMK
TAVF
SPIR
NYPG
VFMV
KRNM
QDNY
SPQW
HGAL
TQWT
VKVT
IWKN
PGGI
HTLF
VGCV
SKGS
METI
ESLW
PLPE
TLSV
IRGG
LSIH
ANLH
SCRA
TGDA
VEHT
RGHI
NWQM
RVAL
PVPD
LWGR
QASH
CHAT
REGW
SNQE
AWRE
QEAW
VMPP
ANKW
CLYG
LTWA
PHHD
CLHK
HHVV
EDWS
NWEC
RVWM
RNTE
PDHQ
AFAA
VDLF
ASFR
MHWC
RCAP
HVSG
THRW
EQNI
MRMG
LHTF
IIAS
RFCW
ILKY
VHYS
GPNS
ISWV
TDLP
QSLP
TNTV
LGGG
VCWR
HRSH
SQHG
ISAG
CPYR
KAWD
QAVV
TAQN
ICGS
MSTF
YHPC
DFGR
TGMR
WVMG
PPLE
DQVR
LCNG
HNAS
FERG
AWHG
PWSQ
RKMW
YVVL
WDCG
HSEY
FYQR
KYMA
FART
PHKV
RILN
PRHW
VSYW
PGHL
LCFF
KMLY
LRNQ
CVNK
NHKM
IALF
CHYY
PSMM
TIFA
KTER
MLAG
IMES
HGRH
LTKS
AYVE
CYKR
AQRY
KYMT
LMLM
EDHC
PEYQ
GYKH
HTYM
NFSM
TIRY
CEIR
RNIN
TFNG
YSPM
YVFC
SDYG
MVMN

one-hybrid fitness for binding NBS DNA, 0.363:
RCRY

one-hybrid fitness for binding NBS DNA, 0.203:
QIPR
